The text below walks through data of PubChem BioAssay AID488969 (Vanderbilt High Throughput Screening Facility, 2010).

In all, about 110,000 compounds were measured (“z-score”: median about -0.1, highest 2% from about 2 on). The list shows a part of the results.

The assay has as its target Metabotropic glutamate receptor 8 (Rattus norvegicus) (UniProt P70579). As to the kind of experiment: mGluR8 Gi/Go-coupled signaling modulation – cell-based, rat, thallium flux, HTS, primary screen (AID 488969). Particulars: HEK293 rat mGluR8, GIRK (G protein-gated inwardly rectifying potassium channel) thallium flux, FluoZin2; at 10 µM; stronger effect = higher value; submaximal glutamate (EC20) added with thallium.
Chain of UniProt P70579 (P70579 whole entry, looked up): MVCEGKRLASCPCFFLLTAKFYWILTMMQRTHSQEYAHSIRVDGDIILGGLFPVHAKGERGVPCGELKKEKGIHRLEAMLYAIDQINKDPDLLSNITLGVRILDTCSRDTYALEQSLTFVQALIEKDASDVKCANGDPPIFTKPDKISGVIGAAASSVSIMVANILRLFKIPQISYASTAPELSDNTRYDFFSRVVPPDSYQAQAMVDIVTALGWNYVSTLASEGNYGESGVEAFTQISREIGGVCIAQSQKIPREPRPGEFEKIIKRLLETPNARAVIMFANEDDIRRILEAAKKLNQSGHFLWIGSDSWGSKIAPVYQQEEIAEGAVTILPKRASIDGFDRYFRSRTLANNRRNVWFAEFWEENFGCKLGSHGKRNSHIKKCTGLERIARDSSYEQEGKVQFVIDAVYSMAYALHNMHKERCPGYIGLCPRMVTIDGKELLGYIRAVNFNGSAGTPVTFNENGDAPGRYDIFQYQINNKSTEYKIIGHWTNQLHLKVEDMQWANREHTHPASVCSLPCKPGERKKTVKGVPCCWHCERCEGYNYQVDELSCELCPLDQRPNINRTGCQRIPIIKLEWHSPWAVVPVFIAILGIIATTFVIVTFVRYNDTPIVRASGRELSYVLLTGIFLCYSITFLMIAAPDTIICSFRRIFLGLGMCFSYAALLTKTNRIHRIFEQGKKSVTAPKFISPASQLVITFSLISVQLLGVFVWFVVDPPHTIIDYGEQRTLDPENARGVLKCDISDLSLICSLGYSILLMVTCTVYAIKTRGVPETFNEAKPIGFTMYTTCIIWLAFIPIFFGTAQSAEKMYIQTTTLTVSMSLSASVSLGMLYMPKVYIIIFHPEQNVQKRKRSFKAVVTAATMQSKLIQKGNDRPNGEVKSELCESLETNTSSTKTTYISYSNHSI
`CC1(C)CC(=O)C2=C(C1)Oc1nc3ccccc3cc1C2C(C#N)C#N` (stereo not drawn) registered a z-score of -0.446.

The molecule `COc1cccc(C(=O)N2CCN(Cc3cc(Br)ccc3OC)CC2)c1` showed a z-score of -0.0474.

The molecule `Cc1ccc(NS(=O)(=O)c2cccc(C(=O)N/N=C/c3ccc4c(c3)OCCO4)c2)c(C)c1` came in with a z-score of -0.361.

In turn, `O=C(O)c1ccc(CSc2nnc(-c3ccco3)o2)cc1` registered a z-score of -0.282.

For the molecule `CCCCOc1ccc(S(N)(=O)=O)cc1`, the z-score was 0.195.

For the molecule `CCOC(=O)CC1=C(C(=O)OCC)C(c2ccc(C)o2)C(C#N)=C(N)O1` (stereo not drawn), the z-score was found to be 0.162.

`COC(=O)Nc1ccc(OC)c(OC)c1` showed a z-score of 0.503.

Molecule `CCOCCCNC(=O)c1ccccc1SCC` returned a z-score of -0.605.

`Cc1nnc(SCC(=O)NCc2cccs2)[nH]c1=O`: the z-score was -0.0582.

Consider `Clc1ccc(-c2noc(CSc3nnc(Cc4cccs4)n3-c3ccccc3)n2)cc1`, for which the z-score stood at 0.0246.

Consider `CCN(CC(=O)NCc1cccs1)c1nnnn1-c1ccccc1`, for which the z-score turned out to be 0.403.

In the case of `COc1ccc(NC(=O)C(C)Sc2ccccc2)cc1` (stereo not drawn), the z-score is -0.199.

For the molecule `Cn1nnc(NC(=O)c2ccc3ccccc3c2)n1`, the z-score was -1.31.

With `CCNC(=O)CC1C(=O)N(c2ccccc2)C(=O)N1CCc1ccc(OC)c(OC)c1` (stereo not drawn), the z-score was -0.356.

For the molecule `O=C(Nc1cccc2ccccc12)OC1C=CS(=O)(=O)C1` (stereo not drawn), the z-score is -0.073.

`COC(=O)c1nc(NC(=O)c2ccccc2)n[nH]1`: the z-score was -0.318.

The molecule `COC(=O)Cc1c(C)c2ccc(OCC(=O)N(C)C)cc2oc1=O` registered a z-score of -0.0906.

On to `Cc1occc1-c1nnc(SCC(=O)N2CCOCC2)n1CC(C)C`, for which the z-score was determined as 0.565.

In turn, `COc1ccc(S(=O)(=O)NCc2ccco2)cc1-c1nnc2c3ccccc3c(C)nn12` came in with a z-score of -0.708.

In the case of `CC(NC(=O)c1cc2c(s1)CCCC2)C(C)(C)C` (stereo not drawn), the z-score is -0.205.

Consider `Cc1ccc(C(=O)COC(=O)CNC(=O)c2ccc(N3C(=O)c4ccccc4C3=O)cc2)cc1C`, for which the z-score came out at 0.225.

Molecule `Cc1cc(C)nc(Nc2n[nH]c(Cc3ccccc3)n2)n1` returned a z-score of -0.469.

`Cc1cc(NC(=O)c2ccco2)no1` showed a z-score of -0.12.

`Cc1cc(N2CCc3ccccc32)n2ncnc2n1` returned a z-score of -0.0199.

Regarding `C=CC(=O)N1c2ccccc2Sc2ccc(NC(=O)OCC)cc21`, the z-score is -0.00168.

With `O=C(OCC(=O)N1CCc2ccccc2C1)c1ccc(N2CCOCC2)c([N+](=O)[O-])c1`, the z-score is -0.0629.

In the case of `CCOC(=O)Nc1cc(OC)c(OC)cc1Cc1nccc2cc(OC)c(OC)cc12`, the z-score was determined as 0.596.

For the molecule `c1ccc2c(c1)CCOC2CNCCCN1CCCCC1` (stereo not drawn), the z-score is -0.111.

In turn, `Cc1cc(C)nc(NC(=O)C(c2ccccc2)c2ccccc2)n1` had a z-score of -0.0816.

The molecule `CCOC(=O)N1CCC(Nc2c(-c3ccc(C)cc3)c(=O)c2=O)CC1` had a z-score of -0.615.

For the molecule `CC(C)c1ccc(CN(C(=O)c2cc3ccccc3oc2=O)C2CCS(=O)(=O)C2)cc1` (stereo not drawn), the z-score was -0.335.

As for `CCCN(Cc1ccccc1)C(=S)Nc1cccc(C(F)(F)F)c1`, the z-score is -0.985.

The molecule `CC12CC3(C)CC(C)(C1)CC(C(=O)NC(=S)NC(C)(C)C)(C2)C3` displayed a z-score of 0.0601.

The molecule `Cc1cc(C(F)(F)F)n2ncc(-c3ccc(F)cc3)c2n1` came in with a z-score of -0.121.

As to `Cc1nnc(NC(=O)CCC(=O)NCc2cccs2)s1`, the z-score is -0.0957.

Take `O=S(=O)(NC1=NCCCCC1)c1cccs1`: the z-score is -0.519.

With `CCOCCCNC(=O)CN1CCN(c2ccc(F)cc2)CC1`, the z-score amounted to 0.089.

Consider `CC(OC(=O)c1ccncc1)C(=O)Nc1cc(S(=O)(=O)N2CCCCC2)ccc1Cl` (stereo not drawn), for which the z-score was -0.113.

For `CCCCn1nc2cc(C(=O)NCc3ccccc3)ccc2c1OCC`, the z-score was -0.255.

`CCOC(=O)c1oc2ccc(S(=O)(=O)n3nc(-c4ccc(C)cc4)cc3N)cc2c1C`: the z-score was -0.468.

Consider `Cc1ccc(C2OC34CCCCCC3C(C#N)(C(=N)O4)C2(C#N)C#N)cc1` (stereo not drawn), for which the z-score was -0.327.

With `CC(=O)C1=C(O)C(=O)N(CCNCCO)C1c1ccccc1` (stereo not drawn), the z-score was 0.0969.

Molecule `Cc1cc(NC(=O)CS(=O)(=O)c2cn(C)c3ccccc23)no1` gave a z-score of 1.39.

`CN(C)S(=O)(=O)c1ccc(C(=O)OCCCN=C2NS(=O)(=O)c3ccccc32)cc1`: the z-score is -0.233.

`Cc1ccc(NC(=O)CCN2C(=O)CSC2=O)c(C)c1` came in with a z-score of -0.126.

`COc1cccc(NC(=O)COC(=O)c2cc(S(=O)(=O)N3CCOCC3)ccc2C)c1`: the z-score came out at 0.12.

`Cc1ccsc1/C=N/n1c(C2CCCCC2)n[nH]c1=S` showed a z-score of 0.383.

Molecule `Cc1cc(C)c(NS(=O)(=O)c2ccc(Cl)c(C(=O)O)c2)c(C)c1` displayed a z-score of 1.03.

As for `Cc1ccc(-c2nc(CS(=O)CC(=O)NCc3ccc(Cl)cc3)c(C)o2)cc1` (stereo not drawn), the z-score is -0.092.

Consider `O=C(Nc1ccc(-c2cn3ccsc3n2)cc1)c1ccc(F)c(S(=O)(=O)N2CCOCC2)c1`, for which the z-score was -0.0159.

In turn, `CCc1ccc(-n2cc(-c3ccc([N+](=O)[O-])cc3)[nH]c2=S)cc1` displayed a z-score of 0.69.

Turning to `O=C(Nc1ccc2c(c1)OCO2)c1cccc(Cl)c1`, the z-score was -0.323.

In turn, `CCCCc1nnc(NC(=O)CS(=O)(=O)Cc2ccccc2)s1` showed a z-score of -0.243.

Regarding `C#CCn1cnc2c(cnn2-c2ccc(C)c(C)c2)c1=O`, the z-score was 0.172.

In the case of `CS(=O)(=O)N1CCN(c2ccccc2NC(=O)c2ccc(Br)o2)CC1`, the z-score is -0.21.

As for `CCN1C(=O)c2ccc(C(=O)Nc3nccs3)cc2C1=O`, the z-score is -0.418.

In turn, `CCOC(=O)c1ccc(NC(=O)CC2COc3ccccc3O2)cc1` (stereo not drawn) displayed a z-score of 0.0513.

For the molecule `CSc1nc(C)cc(SCCO)n1`, the z-score was -0.149.

The molecule `COc1ccc(C(C)NC(=S)NC2CCCC2)cc1OC` (stereo not drawn) returned a z-score of -0.443.

Turning to `COc1ccc(-n2ncc3c(NCC4CCCO4)ncnc32)cc1` (stereo not drawn), the z-score is 0.0525.

`Cc1ccc(-n2nc(-c3ccccc3)cc2Nc2ccccc2N)cc1` displayed a z-score of -0.38.

`O=C(O)C1C2C=CC(O2)C1C(=O)NCc1ccc2c(c1)OCO2` (stereo not drawn) returned a z-score of 0.137.

Molecule `O=C(CCCC(=O)NCc1ccccc1)NCc1ccccc1` displayed a z-score of -0.141.

In the case of `O=C(NCCCn1ccnc1)c1ccc(Br)o1`, the z-score is -0.553.

`C=CCNC(=S)NNC(=O)c1csc(C)c1CC`: the z-score is -0.368.

`N#Cc1nc(-c2ccc(OCc3ccccc3)cc2)oc1NCc1ccco1` returned a z-score of -1.13.

Regarding `O=S(=O)(NCc1cccnc1)c1ccc2c(c1)OCCO2`, the z-score is 0.0622.

As for `Cc1ccc(S(=O)(=O)N2CCC(C(=O)NCc3ccccc3Cl)CC2)cc1`, the z-score came out at 0.217.

`COc1ccc2c(C)nc(Nc3nc(C)c(C)c(=O)[nH]3)nc2c1` gave a z-score of -0.623.

For `COc1cc(C(=O)NCC(c2cccs2)N(C)C)cc(Cl)c1OC(C)C` (stereo not drawn), the z-score is -0.621.

`CCCCc1c(O)nc(SCCC(=O)O)[nH]c1=O` yielded a z-score of -0.183.

Consider `CC(=O)c1c(C(C)=O)c(C)n(-c2nc(-c3ccccc3)c(C)s2)c1C`, for which the z-score was -0.399.

Take `Cc1ccc(C(C(=O)NCc2ccco2)N(C(=O)CNC(=O)c2cccs2)c2ccc(C)cc2C)cc1` (stereo not drawn): the z-score was -0.0836.

The molecule `CCOC(=O)c1sc(NS(=O)(=O)c2ccccc2Cl)nc1C` displayed a z-score of 0.343.

Take `Cc1ccc(S(=O)(=O)N2CCCCC2)cc1NC(=O)CSc1ccc2c(c1)OCCO2`: the z-score was -0.361.

`CCOC(=O)Cc1c(C)c2c(C)[nH]nc2oc1=O` returned a z-score of -0.549.

For `NC(=O)c1nn(-c2ccccc2)nc1N`, the z-score stood at 0.138.

As for `O=C(CN1C(=O)COc2ccccc21)NCCCN1CCc2ccccc2C1`, the z-score came to 0.383.

On to `Cn1c2ccccc2c2c(C(=O)N3CCN(C(=O)c4ccco4)CC3)cn(C3CCCCC3)c(=O)c21`, for which the z-score was -0.126.

`CCOC(=O)/C(C#N)=C/c1c(Oc2cc(C)cc(C)c2)nc2ccccn2c1=O` came in with a z-score of -0.027.

The molecule `CC(C)C(O)(C#CCN1CCCC1)c1ccccc1` (stereo not drawn) displayed a z-score of -0.181.

Molecule `CC(C)CCNC(=O)CN(C)S(=O)(=O)c1cccc2nsnc12` returned a z-score of -0.869.

The molecule `O=C(NC(=S)N1CCN(c2ccc(F)cc2)CC1)C12CC3CC(CC(C3)C1)C2` came in with a z-score of 2.89.

In turn, `O=C(c1ccco1)c1nnn(Cc2ccccc2)c1-c1ccccc1` yielded a z-score of -0.338.

For `CC(=O)Nc1ccc(S(=O)(=O)N2CCN(C(C)CCc3ccccc3)CC2)cc1` (stereo not drawn), the z-score was determined as 0.289.

In the case of `C=CCSC1=N/C(=C\c2cccnc2)C(=O)N1c1ccc(OC)cc1`, the z-score is -0.066.

On to `Cc1ccccc1NC(=S)NC(NC(=O)c1ccccc1C)C(Cl)(Cl)Cl` (stereo not drawn), for which the z-score was -0.0574.

`O=[N+]([O-])c1cc(S(=O)(=O)Nc2ccccc2)ccc1N1CCN(c2ccccc2)CC1` returned a z-score of -0.119.

Regarding `CC1CCN(S(=O)(=O)Cc2ccccc2Cl)CC1`, the z-score was -0.252.

As for `CCOc1ccccc1NC(=O)c1cccc(S(=O)(=O)N(Cc2ccccc2)c2ccccc2OC)c1`, the z-score was -0.414.

Turning to `CCOC(=O)c1cc2c(s1)-c1c(C)cccc1OC2`, the z-score was found to be 0.00792.

Regarding `COC(=O)c1sccc1NC(=O)C1C2C=CC(C2)C1C(=O)O` (stereo not drawn), the z-score was -0.844.

Molecule `CCOC(=O)N1CCN(C(=O)c2cn(CC)c3ccc(S(=O)(=O)N4CCCC4)cc3c2=O)CC1` registered a z-score of 1.25.

As to `N#Cc1cnn(-c2ncnc3sc4c(c23)CCCC4)c1N`, the z-score was -0.172.

Molecule `CC1(C)CC(=O)C=C(NC2CC(C)(C)NC(C)(C)C2)C1` showed a z-score of -0.225.

Take `CC(C)C(=O)NC(=S)Nc1ccc(S(=O)(=O)Nc2ccccc2)cc1`: the z-score is -0.173.

The molecule `O=[N+]([O-])c1ccc(/C=N/n2c(COc3ccccc3)n[nH]c2=S)cc1` returned a z-score of 0.438.

In turn, `CCCC(=O)NCCc1nc2cc([N+](=O)[O-])ccc2n1C` gave a z-score of -0.332.

Molecule `CSc1ccc(N2C(=O)NC3(CCCCC3)C2=O)cc1` returned a z-score of 1.13.

`O=C(CSc1nc2ccccc2c(=O)n1Cc1ccco1)N1CCN(c2ccccc2)CC1`: the z-score was -2.1.

For the molecule `Clc1cccc(CON/C=N/c2ncnc3sccc23)c1`, the z-score worked out at 0.127.

In turn, `CCOC(=O)C1(c2csc(N)n2)COC(=O)C1` (stereo not drawn) gave a z-score of 0.712.

Molecule `Cc1ccccc1OCC(O)Cn1c2ccccc2c2ccccc21` (stereo not drawn) gave a z-score of -0.312.

For `CNc1ncc(C(=O)c2ccccc2)s1`, the z-score was -0.0506.

Consider `Cc1ccc(C(=O)NCC(C)(C)O)cc1`, for which the z-score was -0.259.

Molecule `COc1cc2c(cc1OC)C(C(C)C)=NC(C)(C)C2` yielded a z-score of 0.389.

In the case of `CC(C)NC(=S)N/N=C1\CCCCc2ccccc21`, the z-score is -0.471.

With `Cc1ccc(C(=O)N2CCN(c3ccc(Cl)cc3)CC2)cc1`, the z-score was -0.114.

As for `Cc1ccccc1NC(=O)/C(=C/c1ccccc1)c1ccccc1`, the z-score was -0.447.

`Cc1cc(C)nc(Nc2nc(C)c3cc4c(cc3n2)OCO4)n1` registered a z-score of -0.794.

`CCC1CCCCN1CCCNC(=O)C1CCC(Cn2c(=O)[nH]c3ccccc3c2=O)CC1` (stereo not drawn) came in with a z-score of -0.212.

`CO/N=C/c1ccc(N2CCN(C(=O)c3cccc(Cl)c3)CC2)c([N+](=O)[O-])c1` returned a z-score of 0.0935.

`O=C(c1cccc(F)c1)N1CCCC(C(=O)N2CCCC2)C1` (stereo not drawn): the z-score came to 0.348.
